Here are results for six compounds from the supplement of paper PMC4604168 (melanoma cell lines).

This is one part of the list. Repeats are few or missing, and single values can be far off.
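Note: cells treated in 1,536-well plates, then fixed and DAPI-stained, with nuclei counted from automated high-throughput microscope images.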

The test has as its system A101D. Put plainly: cell count relative to DMSO control; melanoma cells; higher = more viable cells. The conditions noted are these: library dose: standard library concentration; 72 h.
In turn, `O=C(Nc1cc(C(F)(F)F)cc(C(F)(F)F)c1)c1cc(Cl)ccc1O` + C[C@@H](Oc1cc(-c2cnn(C3CCNCC3)c2)cnc1N)c1c(Cl)ccc(F)c1Cl [Crizotinib] (first compound 0.08 µM, partner dose 1 µM) had a cell count of 115%. In the case of `O=C(O)c1ccc2c(c1)nc(Nc1cccc(Cl)c1)c1ccncc12` + Cn1cc(/C=C2\C(=O)Nc3cccnc32)c2ccccc21 [GW441756] (first compound 2 µM, partner dose 2 µM) it was 80%. `O=C(Nc1cc(C(F)(F)F)cc(C(F)(F)F)c1)c1cc(Cl)ccc1O` + CCCCCCCCCCCCCCCCCCOP(=O)([O-])OC1CC[N+](C)(C)CC1 [Perifosine] (first compound 0.08 µM, partner dose 2 µM) came in with a cell count of 88.1%. In the case of `O=C(Nc1cc(C(F)(F)F)cc(C(F)(F)F)c1)c1cc(Cl)ccc1O` + Cn1nnc2c(C(N)=O)ncn2c1=O [temozolomide] (first compound 0.08 µM, partner dose 10 µM) it was 77.7%; in that of `O=C(Nc1cc(C(F)(F)F)cc(C(F)(F)F)c1)c1cc(Cl)ccc1O` + CN(NC(=O)CC(=O)NN(C)C(=S)c1ccccc1)C(=S)c1ccccc1 [STA4783] (first compound 0.08 µM, partner dose 0.03 µM), 71.2%. `O=C(O)[C@@H]1[O][Sb](=[O])([O][Sb]2(=[O])[O][C@H]([C@H](O)CO)[C@H](O)[C@H](C(=O)O)[O]2)[O][C@H]([C@H](O)CO)[C@@H]1O` (stereo partly specified) [stibogluconate] + CCCS(=O)(=O)Nc1ccc(F)c(C(=O)c2c[nH]c3ncc(Cl)cc23)c1F [PLX4720] (first compound 10 µM, partner dose 0.4 µM) gave a cell count of 67.7%.
